# Measured values: the supplement of paper PMC8748497
# The other results are listed elsewhere or left out.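 The calls were made as follows: active = fold change of at least 2 over DMSO control; inactive = below 2-fold.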 Single values are uncertain, as repeats are few or missing.
# System: HEK293 ARE/NRF2-luciferase reporter
# Assay: ARE/NRF2 luciferase reporter activity, fold change over DMSO control; higher = stronger NRF2/ARE reporter activation
# Settings: 10 µM; 24 h
row,SMILES,ARE/NRF2 luciferase reporter activity
1,OC[C@H]1O[C@H](O[C@]2(CCl)O[C@H](CCl)[C@@H](O)[C@@H]2O)[C@H](O)[C@@H](O)[C@H]1Cl,inactive: 0.987
2,COc1cc(OC)c2c(=O)c(-c3ccccc3OC)coc2c1,inactive: 0.878
3,COc1ccccc1N1CCN(CCCNc2cc(=O)n(C)c(=O)n2C)CC1,inactive: 0.938
4,NCCCCCC(=O)O,inactive: 0.923
5,O=C(O)C1=C(CSc2nnnn2CS(=O)(=O)O)CS[C@@H]2[C@H](NC(=O)[C@H](O)c3ccccc3)C(=O)N12,inactive: 0.948
6,CCOc1ccc2ccccc2c1C(=O)N[C@@H]1C(=O)N2[C@@H]1SC(C)(C)[C@@H]2C(=O)O,inactive: 0.921
7,CCOC(=O)[C@H](CCc1ccccc1)N[C@@H](C)C(=O)N1[C@H](C(=O)O)C[C@H]2CCCC[C@@H]21,inactive: 1.03
8,Cn1c(=O)c2c(ncn2CCO)n(C)c1=O,inactive: 0.885
9,CCOCCOc1ccccc1C(N)=O,inactive: 0.888
10,CC1(C)CCC[C@]2(C)[C@H]3CC(=O)O[C@]3(C)CC[C@@H]12,inactive: 0.862
11,NS(=O)(=O)c1cc(C2(O)NC(=O)c3ccccc32)ccc1Cl (centres undefined),inactive: 1.03
12,O=C(O)CN(CCN(CC(=O)O)CC(=O)O)CCN(CC(=O)O)CC(=O)O,inactive: 0.888
13,Cc1oncc1C(=O)Nc1ccc(C(F)(F)F)cc1,inactive: 1.59
14,CO[C@@]1(NC(=O)CSCC#N)C(=O)N2C(C(=O)O)=C(CSc3nnnn3C)CS[C@@H]21,inactive: 1.3
15,CC1CCc2c(N3CCC(O)CC3)c(F)cc3c(=O)c(C(=O)O)cn1c23 (centres undefined),inactive: 1.09
16,CC/C(=C(\c1ccccc1)c1ccc(OCCN(C)C)cc1)c1ccccc1,inactive: 0.552
17,CN(C)/N=N/c1[nH]cnc1C(N)=O,inactive: 0.72
18,O=C(O)/C=C/c1ccc(Cn2ccnc2)cc1,inactive: 1.18
19,O=S(=O)(O)CCSSCCS(=O)(=O)O,inactive: 0.953
20,O=C(O)[C@@H]1CCCN1,inactive: 0.891

row,SMILES,ARE/NRF2 luciferase reporter activity
1,COc1ccc(-c2cc(=O)c3ccccc3o2)cc1,active: 2.76
2,CCCc1nc(C(C)(C)O)c(C(=O)O)n1Cc1ccc(-c2ccccc2-c2nnn[nH]2)cc1,inactive: 1.17
3,OCCOCCN1CCN(C(c2ccccc2)c2ccc(Cl)cc2)CC1 (centres undefined),inactive: 0.699
4,CC(=O)Oc1c(C)c(C)c2c(c1C)CCC(C)(CCCC(C)CCCC(C)CCCC(C)C)O2 (stereo not drawn) [alpha-TOCHOPHERYL ACETATE [4mM]],inactive: 0.702
5,O=C(Oc1cccc2cccnc12)c1ccccc1,inactive: 0.813
6,CC(=O)OC(C)C[N+](C)(C)C (centres undefined),inactive: 1.07
7,Cc1[nH]c(=O)c(C#N)cc1-c1ccncc1,inactive: 0.839
8,C[C@H]1[C@@H](O)O[C@@H]2O[C@@]3(C)CC[C@H]4[C@H](C)CC[C@@H]1[C@@]24OO3,inactive: 0.497
9,C=CCCCCCCCCCCCc1ccco1,inactive: 1.41
10,COCCc1ccc(OCC(O)CNC(C)C)cc1 (centres undefined),inactive: 0.986
11,CC(=O)[C@H]1CC[C@H]2[C@@H]3CC=C4C[C@@H](OC(=O)CCC(=O)O)CC[C@]4(C)[C@H]3CC[C@]12C,inactive: 0.927
12,CC(CCc1ccc(O)cc1)NCC(O)c1ccc(O)cc1 (centres undefined),inactive: 0.716
13,COc1ccc(-c2coc3cc(OC)cc(OC)c3c2=O)cc1,active: 2.54
14,Nc1ccc(S(=O)(=O)Nc2ncccn2)cc1,inactive: 0.816
15,CCCCCCCCCc1ccc(OCCOCCOCCOCCOCCOCCOCCOCCOCCO)cc1,inactive: 0.123
16,CC1CC(OC(=O)C(O)c2ccccc2)CC(C)(C)C1 (centres undefined),inactive: 0.805
17,O=C1CN(/N=C/c2ccc([N+](=O)[O-])o2)C(=O)N1,inactive: 0.808
18,CC(C)(C)CC(=O)OCC(=O)[C@@]1(O)CC[C@H]2[C@@H]3CCC4=CC(=O)C=C[C@]4(C)[C@H]3[C@@H](O)C[C@@]21C,inactive: 0.92
19,COc1ccc2cc1Oc1ccc(cc1)C[C@H]1c3cc(c(OC)cc3CCN1C)Oc1c(OC)c(OC)cc3c1[C@H](C2)N(C)CC3,inactive: 0.895
